Results as given in PMC2749851.
No constants are given. Whether binding was seen depends on the method and setting. Binding seen in cells or lysates may run through a third protein. Some entries that bind do so weakly or less than the wild type. For some of these results: Tags and fused reporters may be left off the sequences shown.

Tests used:
[1] = target: Flag-HA-tagged CtBP2 (wild type) (UniProt P56545); experiment: co-IP; Flag-HA-tagged CtBP proteins transiently expressed in 293 cells; lysates immunoprecipitated with the Flag antibody; Western blots of endogenous co-factors
[2] = target: Flag-HA-tagged GG-CtBP2 (G189A/G192A) (UniProt P56545); experiment: as above
[3] = target: Flag-HA-tagged RR-CtBP2 (R147L/R169L) (UniProt P56545); experiment: as above
[4] = target: Flag-HA-tagged CtBP2 (wild type) (UniProt P56545); experiment: co-IP; HeLa cells transfected with Flag-HA-tagged CtBP2 or RR-CtBP2 alone or with GFP-ZEB101 (also in increasing amounts) or GFP-Cter; lysates immunoprecipitated with Flag antibody beads; Western blots
[5] = target: Flag-HA-tagged RR-CtBP2 (R147L/R169L) (UniProt P56545); experiment: as above

Measured: binding

B1: zinc-finger E-box binding homeobox (ZEB), endogenous (protein, UniProt P37275-1 1-1124)
chain: MADGPRCKRRKQANPRRNNVTNYNTVVETNSDSDDEDKLHIVEEESVTDAADCEGVPEDDLPTDQTVLPGRSSEREGNAKNCWEDDRKEGQEILGPEAQADEAGCTVKDDECESDAENEQNHDPNVEEFLQQQDTAVIFPEAPEEDQRQGTPEASGHDENGTPDAFSQLLTCPYCDRGYKRFTSLKEHIKYRHEKNEDNFSCSLCSYTFAYRTQLERHMTSHKSGRDQRHVTQSGCNRKFKCTECGKAFKYKHHLKEHLRIHSGEKPYECPNCKKRFSHSGSYSSHISSKKCISLIPVNGRPRTGLKTSQCSSPSLSASPGSPTRPQIRQKIENKPLQEQLSVNQIKTEPVDYEFKPIVVASGINCSTPLQNGVFTGGGPLQATSSPQGMVQAVVLPTVGLVSPISINLSDIQNVLKVAVDGNVIRQVLENNQANLASKEQETINASPIQQGGHSVISAISLPLVDQDGTTKIIINYSLEQPSQLQVVPQNLKKENPVATNSCKSEKLPEDLTVKSEKDKSFEGGVNDSTCLLCDDCPGDINALPELKHYDLKQPTQPPPLPAAEAEKPESSVSSATGDGNLSPSQPPLKNLLSLLKAYYALNAQPSAEELSKIADSVNLPLDVVKKWFEKMQAGQISVQSSEPSSPEPGKVNIPAKNNDQPQSANANEPQDSTVNLQSPLKMTNSPVLPVGSTTNGSRSSTPSPSPLNLSSSRNTQGYLYTAEGAQEEPQVEPLDLSLPKQQGELLERSTITSVYQNSVYSVQEEPLNLSCAKKEPQKDSCVTDSEPVVNVIPPSANPINIAIPTVTAQLPTIVAIADQNSVPCLRALAANKQTILIPQVAYTYSTTVSPAVQEPPLKVIQPNGNQDERQDTSSEGVSNVEDQNDSDSTPPKKKMRKTENGMYACDLCDKIFQKSSSLLRHKYEHTGKRPHECGICKKAFKHKHHLIEHMRLHSGEKPYQCDKCGKRFSHSGSYSQHMNHRYSYCKREAEERDSTEQEEAGPEILSNEHVGARASPSQGDSDERESLTREEDEDSEKEEEEEDKEMEELQEEKECEKPQGDEEEEEEEEEVEEEEVEEAENEGEEAKTEGLMKDDRAESQASSLGQKVGESSEQVSEEKTNEA
binds: [1] | [2] | [3] | [4] | [5]

B2: GFP-ZEB101 (domain or fragment, UniProt P37275-1 680-780)
chain: PLKMTNSPVLPVGSTTNGSRSSTPSPSPLNLSSSRNTQGYLYTAEGAQEEPQVEPLDLSLPKQQGELLERSTITSVYQNSVYSVQEEPLNLSCAKKEPQKD
binds: [4] | [5]
